The text below walks through data of PubChem BioAssay AID1745853 (National Center for Advancing Translational Sciences (NCATS), 2022).

The list shows a part of the results. These are further read-outs of the screen, such as a control signal, another cell line or another target. No call is given for them.

Test in all cases: Primary Screen for Target Class Profiling of Small Molecule Inhibitors of Methyltransferases
Assay [1] deals with Glycine N-methyltransferase (Homo sapiens) (UniProt Q14749). To be noted: purified enzyme, MTase-Glo SAH luminescence; measured here: GNMT inhibition; at 40 µM; stronger effect = lower value. Summed up: (§1)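 Each enzyme was reacted with SAM and its substrate, with compounds tested once at 40 uM; SAH formed was read by MTase-Glo luminescence.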
For assay [2], the target named is Guanidinoacetate N-methyltransferase (Homo sapiens) (UniProt Q14353). The conditions noted are these: purified enzyme, MTase-Glo SAH luminescence; measured here: GAMT inhibition; at 40 µM; stronger effect = lower value. Summed up: as §1
For assay [3], the target named is Histamine N-methyltransferase (Homo sapiens) (UniProt P50135). The conditions noted are these: purified enzyme, MTase-Glo SAH luminescence; measured here: HNMT inhibition; at 40 µM; stronger effect = lower value. Summed up: as §1
In assay [4] the target is Nicotinamide N-methyltransferase (Homo sapiens) (UniProt P40261). The conditions noted are these: purified enzyme, MTase-Glo SAH luminescence; measured here: NNMT inhibition; at 40 µM; stronger effect = lower value. Summed up: as §1
Assay [5] concerns the target Phenylethanolamine N-methyltransferase (Homo sapiens) (UniProt P11086). The conditions noted are these: purified enzyme, MTase-Glo SAH luminescence; measured here: PNMT inhibition; at 40 µM; stronger effect = lower value. Summed up: as §1
% is set by controls: 0 for no effect and ±100 for the full control effect.

On to `COc1ccc(OC)c2c1cc1n2CC(C)(C(=O)NC2CCCCCC2)N(CCC(C)C)C1=O` (stereo not given), for which the activity change, negative = inhibition in assay [1] was 30.8%; in assay [2] it was -2.7%; in assay [3], -0.292%; in assay [4] it was -4.39%; in assay [5], -15.6%.
The like results for `COCCCN1C(=O)c2cc3ccccc3n2CC1(C)C(=O)NC1CCCC1` (stereo not given) were, in that order, 3.43%, 0%, 2.67%, 5.08% and 0.42%.
Consider `Cc1ccccc1CC(=O)Nc1cccc(-c2nnc3n2CCCC3)c1`, for which the activity change, negative = inhibition in assay [1] was -3.77%; in assay [2] it was -0.338%; in assay [3], -4.82%; in assay [4] it was -5.11%; in assay [5], -2.31%.
Taken in the same sequence, the figures for `Cc1ccc(Cn2c(=O)c3ccccc3n3c(CCC(=O)NC4CCC(C)CC4)nnc23)cc1` (stereo not given) were -10.1%, -1.31%, -6.12%, -8.89% and -10.3%.
The like results for `C=C1C(=O)O[C@@H]2C[C@H](C)C3=CC(=O)[C@H](O)[C@@]3(C)C[C@H]12` were, in that order, -0.893%, -10.3%, 7.41%, -22.1% and 0.734%.
As to `COc1ccc(CCNC(=O)c2cc3n(n2)CC(C)(C(=O)NCc2ccc(F)cc2)N(C)C3=O)c(OC)c1` (stereo not given), the activity change, negative = inhibition is -2.02% in assay [1]; 0.715% in assay [2]; -9.02% in assay [3]; -0.508% in assay [4]; -0.353% in assay [5].
The like results for `CCOc1ccc2c(n1)CCN(C(=O)C1(c3ccccc3)CC1)C2` were, in that order, -15.4%, -5.88%, -7.16%, -35.8% and -7.26%.
The like results for `Cc1ccc(CN2C(=O)c3cnn(-c4ccccc4)c3-n3cccc3C2C(=O)NC2CCCCCC2)cc1` (stereo not given) were, in that order, -2.4%, 0.42%, 4.21%, 4.98% and 4.63%.
`CC(C)CCNC(=O)C1(C)Cn2nc(C(=O)NCCN3CCCCC3)cc2C(=O)N1C` (stereo not given): the activity change, negative = inhibition was found to be 5.69% in assay [1]; 0.584% in assay [2]; 2.16% in assay [3]; 6.67% in assay [4]; 2.6% in assay [5].
`CCCn1c(=O)c2ccccc2n2c(SCc3ccc(Cl)cc3)nnc12`: the activity change, negative = inhibition in assay [1] is -9.21%; in assay [2], 0%; in assay [3] it was -0.101%; in assay [4] it was -12.2%; in assay [5], 2.86%.
Take `Cc1ccc(CN2C(=O)c3cc4occc4n3CC2(C)C(=O)NC2CCCCCC2)cc1` (stereo not given): the activity change, negative = inhibition in assay [1] is -8.59%; in assay [2] it was 2.93%; in assay [3], -2.12%; in assay [4], -7.06%; in assay [5] it was -3.31%.
Take `COc1ccccc1CNC(=O)C1c2c(n(C)c3ccccc23)SCC(=O)N1c1ccc(F)cc1F` (stereo not given): the activity change, negative = inhibition in assay [1] worked out at 10.6%; in assay [2], 0.769%; in assay [3] it was 5.75%; in assay [4] it was 0.402%; in assay [5], 8.41%.
The like results for `COc1ccc(-c2cc3n(n2)CC(C)(C(=O)NC2CCCCC2)N(c2cccc(Cl)c2)C3=O)cc1` (stereo not given) were, in that order, 0.679%, 5.52%, -0.178%, -1.63% and -5.93%.
Taken in the same sequence, the figures for `COc1ccc(-c2cc3n(n2)CC(C)(C(=O)NCc2ccccc2)N(Cc2ccc(N(C)C)cc2)C3=O)cc1` (stereo not given) were 1.92%, 5.77%, -0.842%, 2.83% and -3.4%.
Taken in the same sequence, the figures for `Cn1c(=O)c2ccc(C(=O)NC3CCCC3)cc2n2c(SCC(=O)Nc3cccc(Cl)c3)nnc12` were -4.81%, -0.61%, 2.15%, -4.42% and 1.33%.
With `CCc1cc2c(cc3n2CC(C(=O)NC2CCCCCCC2)(c2ccccc2)N(Cc2ccccc2)C3=O)s1` (stereo not given), the activity change, negative = inhibition in assay [1] is 4.83%; in assay [2], 5.24%; in assay [3], 6.13%; in assay [4], -10.3%; in assay [5] it was -2.86%.
The like results for `O=C1NC2(CCCN(C(=O)c3ccc(F)cc3)C2)Oc2ccccc21` (stereo not given) were, in that order, -9.26%, -7.72%, 0.019%, -11.7% and -7.88%.
The like results for `COc1cccc2cc(-c3nc(C4CCC(C(=O)O)CC4)n4ncnc(N)c34)[nH]c12` (stereo not given) were, in that order, -0.385%, 0.127%, 4.75%, -16% and -1.42%.
The like results for `CC(=O)OCC(=O)[C@@]1(O)[C@H](C)C[C@H]2[C@@H]3CCC4=CC(=O)C=C[C@]4(C)[C@@]3(F)[C@@H](O)C[C@@]21C` were, in that order, -3.25%, 0.86%, 5.34%, -14.9% and 1.88%.
Turning to `CCCC1(c2ccccc2)NC(=O)N(CC(=O)N(C)Cc2c(F)cccc2Cl)C1=O` (stereo not given), the activity change, negative = inhibition in assay [1] was -11.4%; in assay [2], -17.9%; in assay [3], -10.1%; in assay [4], -20.5%; in assay [5], -25%.
The like results for `COc1ccc(OC)c(CNC(=O)c2cccc3c2CCN3C(=O)c2ccc(F)cc2)c1` were, in that order, -4.79%, -7.31%, -4.21%, -10.3% and -5.85%.
Taken in the same sequence, the figures for `O=C(Nc1ccccc1F)N1CC(Oc2ccc(-c3noc(-c4ccccc4)n3)cc2)C1` were -1.5%, -4.18%, -1.88%, -2.24% and -1.59%.
The like results for `CCc1cc2c(cc3n2CC(C)(C(=O)NC2CCCCC2)N(CCc2ccc(Cl)cc2)C3=O)s1` (stereo not given) were, in that order, -5.21%, 4.51%, -6.51%, -4.18% and -6.9%.
Take `CCC1Oc2ccc(NC(=O)CC(C)(C)C)cc2CN(Cc2ccccc2F)C1=O` (stereo not given): the activity change, negative = inhibition is -7.95% in assay [1]; -5.74% in assay [2]; -3.59% in assay [3]; -16.6% in assay [4]; 2.73% in assay [5].
Take `O=C(CCc1nnc2n(Cc3ccccc3Cl)c(=O)c3ccccc3n12)NCc1ccc2c(c1)OCO2`: the activity change, negative = inhibition was 6.45% in assay [1]; 0.67% in assay [2]; 4% in assay [3]; 1.17% in assay [4]; -2.05% in assay [5].
Taken in the same sequence, the figures for `O=C(NCCc1ccccc1)Nc1cccn2ncnc12` were -5.2%, -2.45%, -5.53%, -3.65% and -44.7%.
On to `O=C(C1CCCN1C(=O)c1ccccc1)N1CCC(c2ccccc2)CC1` (stereo not given), for which the activity change, negative = inhibition in assay [1] is -2.52%; in assay [2], -1.46%; in assay [3] it was 0.841%; in assay [4], 0.075%; in assay [5], 1.74%.
Taken in the same sequence, the figures for `Cc1ccc(CN2C(=O)c3nc4ccccc4n3CC2(C)C(=O)NCCC(C)C)cc1` (stereo not given) were -3.48%, 0%, 2.33%, 6.92% and 4.24%.
Taken in the same sequence, the figures for `CC(=O)O[C@@H]1C[C@]2(C)[C@@]3(CCC4[C@@]5(C)CC[C@H](O[C@@H]6O[C@H](C(=O)O)[C@@H](O)[C@H](OC7OC(CO)C(O)C(O)[C@H]7O[C@@H]7O[C@@H](C)[C@H](O)[C@@H](O)[C@H]7O[C@@H]7OC[C@](O)(CO)[C@H]7O)[C@H]6OC6OC(CO)C(O)C(O)C6O)C(C)(C)C5CC[C@]42C)OC[C@@]12CCC(C)(C)CC23` (stereo not given in full) were 1.15%, 1.65%, 9.93%, -9.64% and -5.7%.
Taken in the same sequence, the figures for `COc1ccc([C@H]2C[C@@H](O)[C@@H](O)[C@@H]2NS(=O)(=O)c2ccc(Cl)cc2)cc1` were -9.12%, -8.86%, -4.89%, -5.92% and -3.32%.
Regarding `COc1cccc(N2CCN(C(=O)c3noc(-c4ccc(C)cc4)n3)CC2)c1`, the activity change, negative = inhibition in assay [1] is -4.34%; in assay [2], 1.31%; in assay [3] it was -1.43%; in assay [4], -5.14%; in assay [5], -1.84%.
The like results for `COC(=O)c1cc2n(n1)CC(C)(C(=O)NC1CCCCC1)N(c1ccc(C)c(Cl)c1)C2=O` (stereo not given) were, in that order, 6.04%, 1.82%, 3.98%, 9.7% and 9.47%.
The like results for `O=C(C1CCC1)N1CCC(Cc2nncn2Cc2ccccc2)CC1` were, in that order, -2.16%, -3.36%, -0.699%, -7.15% and -4.95%.
Taken in the same sequence, the figures for `CCCn1c(=O)c2ccc(C(=O)NC(C)CC)cc2n2c(=O)n(CC(=O)c3ccc(Cl)cc3)nc12` (stereo not given) were 9.84%, 0.27%, 4.05%, 1.49% and 6.92%.
`CC1(C)CCC[C@]2(C)[C@H]3CC(=O)O[C@]3(C)CC[C@@H]12`: the activity change, negative = inhibition in assay [1] was -6.98%; in assay [2] it was 3.11%; in assay [3], -5.73%; in assay [4], -39.2%; in assay [5], -23.6%.
Taken in the same sequence, the figures for `Fc1ccc(-c2nc(-c3ccccc3F)[nH]c2-c2ccncc2)cc1` were -21.3%, -6.52%, -19.8%, -22.7% and -7%.
